Here are results for two molecules from publication PMC3398040.

No constants are given. Whether binding was seen depends on the method and setting. Binding seen in cells or lysates may run through a third protein. Some results given as binding are weak or reduced against the parent protein; the word gives no strength. Tags and fused reporters may be left off the sequences shown.

In assay [1] the target is T1, HIS-tagged Ddi1 (^HISDdi1) (yeast), P40087.
T1 chain: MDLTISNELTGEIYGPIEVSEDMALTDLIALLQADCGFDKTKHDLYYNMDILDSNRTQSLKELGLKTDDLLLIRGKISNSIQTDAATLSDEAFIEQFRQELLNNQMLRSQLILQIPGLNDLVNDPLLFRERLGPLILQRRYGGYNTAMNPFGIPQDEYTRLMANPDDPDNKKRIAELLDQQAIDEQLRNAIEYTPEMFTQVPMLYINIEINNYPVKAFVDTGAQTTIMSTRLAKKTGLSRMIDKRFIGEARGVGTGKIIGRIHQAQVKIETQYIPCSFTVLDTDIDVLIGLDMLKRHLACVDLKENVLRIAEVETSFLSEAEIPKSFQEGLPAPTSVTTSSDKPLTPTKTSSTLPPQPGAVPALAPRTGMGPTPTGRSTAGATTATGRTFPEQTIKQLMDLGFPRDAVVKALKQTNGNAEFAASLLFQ
Put plainly: pull-down; HIS-Ddi1 on Ni beads incubated with GST-Ufo1 lysate mixed with increasing amounts of GST-Rpn10 lysate (Figure 5C); only the target purified. Particulars: remark: other sources report otherwise.

Assay [2] deals with T2, GST-tagged Cdc53 (^GSTCdc53) (S. cerevisiae) (UniProt Q12018).
T2 sequence: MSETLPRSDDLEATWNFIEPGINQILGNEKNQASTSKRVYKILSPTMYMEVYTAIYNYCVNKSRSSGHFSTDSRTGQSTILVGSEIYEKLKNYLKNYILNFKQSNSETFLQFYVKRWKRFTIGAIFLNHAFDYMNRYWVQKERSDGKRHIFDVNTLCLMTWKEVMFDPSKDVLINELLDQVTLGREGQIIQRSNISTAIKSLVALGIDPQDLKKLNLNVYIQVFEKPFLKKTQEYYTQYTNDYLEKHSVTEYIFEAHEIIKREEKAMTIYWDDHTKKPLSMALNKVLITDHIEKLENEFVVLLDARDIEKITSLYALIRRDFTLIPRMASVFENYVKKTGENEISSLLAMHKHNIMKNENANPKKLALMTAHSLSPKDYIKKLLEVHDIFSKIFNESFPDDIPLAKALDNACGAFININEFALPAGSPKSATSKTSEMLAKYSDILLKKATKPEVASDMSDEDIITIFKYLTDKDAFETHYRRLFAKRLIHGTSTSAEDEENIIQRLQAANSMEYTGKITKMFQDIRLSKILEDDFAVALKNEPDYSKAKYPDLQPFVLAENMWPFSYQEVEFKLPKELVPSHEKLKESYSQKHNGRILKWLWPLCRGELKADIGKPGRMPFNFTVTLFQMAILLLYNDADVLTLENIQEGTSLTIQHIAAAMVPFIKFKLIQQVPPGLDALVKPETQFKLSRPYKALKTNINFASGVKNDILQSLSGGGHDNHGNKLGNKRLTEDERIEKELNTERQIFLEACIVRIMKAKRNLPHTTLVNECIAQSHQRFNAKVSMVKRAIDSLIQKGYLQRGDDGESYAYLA
Put plainly: pull-down; recombinant GST fusion on GSH beads incubated with bacterial lysate holding a HIS-tagged protein; Western blot (Figures 1C, 3C, 3D, 5D, 5E with Rpn1 alone); only the target purified. A general note: A western blot detects proteins with antibodies after separation by electrophoresis.

Assay [3] concerns the target T3, GST-tagged Rpn10 (^GSTRpn10) (yeast) (UniProt P38886).
T3 sequence: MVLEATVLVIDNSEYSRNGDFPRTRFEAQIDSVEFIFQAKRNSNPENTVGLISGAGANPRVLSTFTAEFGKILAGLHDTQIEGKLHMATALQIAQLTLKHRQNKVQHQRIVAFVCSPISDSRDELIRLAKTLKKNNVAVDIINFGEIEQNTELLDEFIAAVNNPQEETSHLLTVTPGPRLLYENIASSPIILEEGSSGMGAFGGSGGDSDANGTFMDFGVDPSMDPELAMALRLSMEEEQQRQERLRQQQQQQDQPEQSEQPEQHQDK
The assay is described as above.

Assay [4] addresses T4, GST-tagged Rpn1 (^GSTRpn1) (yeast) (UniProt P38764).
T4 sequence: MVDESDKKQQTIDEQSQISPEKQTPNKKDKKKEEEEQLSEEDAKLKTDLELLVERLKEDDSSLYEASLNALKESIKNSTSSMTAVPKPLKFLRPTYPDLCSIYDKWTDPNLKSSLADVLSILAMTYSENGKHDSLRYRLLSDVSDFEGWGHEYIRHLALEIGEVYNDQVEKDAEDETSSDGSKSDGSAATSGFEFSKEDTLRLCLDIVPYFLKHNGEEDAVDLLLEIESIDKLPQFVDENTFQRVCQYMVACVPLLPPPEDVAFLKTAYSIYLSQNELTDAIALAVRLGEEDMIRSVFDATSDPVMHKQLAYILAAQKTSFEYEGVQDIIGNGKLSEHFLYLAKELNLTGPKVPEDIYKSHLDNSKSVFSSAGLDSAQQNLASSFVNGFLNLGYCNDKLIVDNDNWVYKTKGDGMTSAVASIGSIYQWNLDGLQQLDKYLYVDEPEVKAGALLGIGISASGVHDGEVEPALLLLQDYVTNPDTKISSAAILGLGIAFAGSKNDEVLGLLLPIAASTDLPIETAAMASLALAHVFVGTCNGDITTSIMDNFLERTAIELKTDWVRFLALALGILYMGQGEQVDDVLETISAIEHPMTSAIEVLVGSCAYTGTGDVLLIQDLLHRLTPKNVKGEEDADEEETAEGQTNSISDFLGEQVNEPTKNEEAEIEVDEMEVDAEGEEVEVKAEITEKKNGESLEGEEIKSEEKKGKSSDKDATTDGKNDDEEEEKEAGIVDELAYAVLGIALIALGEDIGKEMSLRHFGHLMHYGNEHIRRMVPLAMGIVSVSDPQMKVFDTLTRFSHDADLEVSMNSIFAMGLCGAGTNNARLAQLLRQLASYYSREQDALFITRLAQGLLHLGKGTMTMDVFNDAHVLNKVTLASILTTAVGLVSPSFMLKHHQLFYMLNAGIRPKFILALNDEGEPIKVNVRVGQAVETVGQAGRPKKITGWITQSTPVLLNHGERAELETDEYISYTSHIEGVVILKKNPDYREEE
Described as above.

B1: GST-tagged Rpn10 (^GSTRpn10), P38886 1-268 (protein)
chain: MVLEATVLVIDNSEYSRNGDFPRTRFEAQIDSVEFIFQAKRNSNPENTVGLISGAGANPRVLSTFTAEFGKILAGLHDTQIEGKLHMATALQIAQLTLKHRQNKVQHQRIVAFVCSPISDSRDELIRLAKTLKKNNVAVDIINFGEIEQNTELLDEFIAAVNNPQEETSHLLTVTPGPRLLYENIASSPIILEEGSSGMGAFGGSGGDSDANGTFMDFGVDPSMDPELAMALRLSMEEEQQRQERLRQQQQQQDQPEQSEQPEQHQDK
Turning to B1, in assay [1], the binding entry is “binds”.

B2: HIS-tagged core of Ddi1 without the UbL and UbA domains (^HISΔΔDdi1) (domain or fragment, UniProt P40087 180-325)
chain: QQAIDEQLRNAIEYTPEMFTQVPMLYINIEINNYPVKAFVDTGAQTTIMSTRLAKKTGLSRMIDKRFIGEARGVGTGKIIGRIHQAQVKIETQYIPCSFTVLDTDIDVLIGLDMLKRHLACVDLKENVLRIAEVETSFLSEAEIPK
For the molecule B2, the binding result in assay [2] is “binds”; in assay [3] it was “binds weakly”; in assay [4], “binds”.
